{"source": "the supplement of paper PMC4604168 (melanoma cell lines)", "note": "This is one part of the list. Many values rest on one well or one pass, so single values are uncertain.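 Note: cell number obtained by counting DAPI-stained nuclei in high-throughput microscope images with image analysis software, screen run in 1,536-well plates.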", "data": [{"test_system": "WM1745", "assay": "cell count relative to DMSO control; higher = more viable cells", "settings": "library dose: low library concentration; 72 h", "units": {"cell count": "%"}, "values": [{"smiles": "Cc1cn(-c2cc(NC(=O)c3ccc(C)c(Nc4nccc(-c5cccnc5)n4)c3)cc(C(F)(F)F)c2)cn1", "note": "[nilotinib] + C[C@]12O[C@H](C[C@]1(O)CO)n1c3ccccc3c3c4c(c5c6ccccc6n2c5c31)CNC4=O [Lestaurtinib] (first compound 0.2 µM, partner dose 0.004 µM)", "cell count": 78.7}, {"smiles": "COc1cc2c(Oc3ccc4[nH]c(C)cc4c3F)ncnc2cc1OCCCN1CCCC1", "note": "[cediranib] + C/C(O)=C(\\C#N)C(=O)Nc1cc(Br)ccc1Br [LFM-A13] (first compound 0.4 µM, partner dose 2 µM)", "cell count": 99.1}, {"smiles": "O=C(/C=C/c1cccnc1)NCCCCC1CCN(C(=O)c2ccccc2)CC1", "note": "+ Cc1cc(SCc2sc(-c3ccc(C(F)(F)F)c(F)c3)nc2C)ccc1OCC(=O)O [GW0742] (first compound 0.01 µM, partner dose 2 µM)", "cell count": 93.9}, {"smiles": "Cn1c(=O)n(-c2ccc(C(C)(C)C#N)cc2)c2c3cc(-c4cnc5ccccc5c4)ccc3ncc21", "note": "+ N.N.[Cl][Pt][Cl] [cisplatin] (first compound 0.004 µM, partner dose 1.6 µM)", "cell count": 104}, {"smiles": "Cc1cc(N2CCOCC2)cc2[nH]c(-c3c(NC[C@@H](O)c4cccc(Cl)c4)cc[nH]c3=O)nc12", "note": "+ Cc1cc(SCc2sc(-c3ccc(C(F)(F)F)c(F)c3)nc2C)ccc1OCC(=O)O [GW0742] (first compound 0.2 µM, partner dose 2 µM)", "cell count": 84.4}, {"smiles": "CCCCCCCCc1ccc(CCC(N)(CO)CO)cc1", "note": "[fingolimod] + C[As](C)SC[C@H](NC(=O)CC[C@H](N)C(=O)O)C(=O)NCC(=O)O [Darinaparsin] (first compound 2 µM, partner dose 0.4 µM)", "cell count": 64.8}, {"smiles": "CNC(=O)c1cc(Oc2ccc(NC(=O)Nc3ccc(Cl)c(C(F)(F)F)c3)cc2)ccn1", "note": "[sorafenib] + Cc1cc(SCc2sc(-c3ccc(C(F)(F)F)c(F)c3)nc2C)ccc1OCC(=O)O [GW0742] (first compound 0.4 µM, partner dose 2 µM)", "cell count": 71.5}, {"smiles": "CS(=O)(=O)CCNCc1ccc(-c2ccc3ncnc(Nc4ccc(OCc5cccc(F)c5)c(Cl)c4)c3c2)o1", "note": "[lapatinib] + O=C(Oc1ccc([N+](=O)[O-])cc1)N1CCC(C(O)(c2ccc3c(c2)OCO3)c2ccc3c(c2)OCO3)CC1 [JZL184] (first compound 0.8 µM, partner dose 1 µM)", "cell count": 91}, {"smiles": "COc1ccc2c(c1)CCC1C2CCC2(C)C(NCCCCCCN3C(=O)C=CC3=O)CCC12", "note": "(stereo unspecified) + C/C(O)=C(\\C#N)C(=O)Nc1cc(Br)ccc1Br [LFM-A13] (first compound 0.4 µM, partner dose 2 µM)", "cell count": 86.5}]}, {"test_system": "WM3526", "assay": "cell count relative to DMSO control; melanoma cells; higher = more viable cells", "settings": "library dose: low library concentration; 72 h", "units": {"cell count": "%"}, "values": [{"smiles": "C/C(O)=C(\\C#N)C(=O)Nc1cc(Br)ccc1Br", "note": "+ CC(C)CCN1c2nc(Nc3cc(F)c(O)c(F)c3)ncc2N(C)C(=O)C1C [BID1870] (first compound 2 µM, partner dose 0.2 µM)", "cell count": 77.8}, {"smiles": "COc1ccc(C2=N[C@@H](c3ccc(Cl)cc3)[C@@H](c3ccc(Cl)cc3)N2C(=O)N2CCNC(=O)C2)c(OC(C)C)c1", "note": "[Nutlin-3] + N.N.[Cl][Pt][Cl] [cisplatin] (first compound 0.1 µM, partner dose 1.6 µM)", "cell count": 103}, {"smiles": "O=C(Nc1cc(C(F)(F)F)cc(C(F)(F)F)c1)c1cc(Cl)ccc1O", "note": "+ C/C(O)=C(\\C#N)C(=O)Nc1cc(Br)ccc1Br [LFM-A13] (first compound 0.016 µM, partner dose 2 µM)", "cell count": 75.8}, {"smiles": "Cc1cc(SCc2sc(-c3ccc(C(F)(F)F)c(F)c3)nc2C)ccc1OCC(=O)O", "note": "+ C/C(O)=C(\\C#N)C(=O)Nc1cc(Br)ccc1Br [LFM-A13] (first compound 2 µM, partner dose 2 µM)", "cell count": 70.8}, {"smiles": "CCCCCCCCCCCCCCCCCCOP(=O)([O-])OC1CC[N+](C)(C)CC1", "note": "[Perifosine] + C[As](C)SC[C@H](NC(=O)CC[C@H](N)C(=O)O)C(=O)NCC(=O)O [Darinaparsin] (first compound 0.4 µM, partner dose 0.4 µM)", "cell count": 70.9}, {"smiles": "O=C(/C=C/c1cccnc1)NCCCCC1CCN(C(=O)c2ccccc2)CC1", "note": "+ N.N.[Cl][Pt][Cl] [cisplatin] (first compound 0.01 µM, partner dose 1.6 µM)", "cell count": 104}, {"smiles": "COc1ccc(-c2ccc3c(N4CCOCC4)nc(N4C[C@@H](C)O[C@@H](C)C4)nc3n2)cc1CO", "note": "+ O=C(Oc1ccc([N+](=O)[O-])cc1)N1CCC(C(O)(c2ccc3c(c2)OCO3)c2ccc3c(c2)OCO3)CC1 [JZL184] (first compound 0.02 µM, partner dose 1 µM)", "cell count": 77.7}, {"smiles": "C=C(c1ccc(C(=O)O)cc1)c1cc2c(cc1C)C(C)(C)CCC2(C)C", "note": "[Bexarotene] + C[As](C)SC[C@H](NC(=O)CC[C@H](N)C(=O)O)C(=O)NCC(=O)O [Darinaparsin] (first compound 2 µM, partner dose 0.4 µM)", "cell count": 86.8}, {"smiles": "CC1(C)CCC(c2ccc(Cl)cc2)=C(CN2CCN(c3ccc(C(=O)NS(=O)(=O)c4ccc(N[C@H](CCN5CCOCC5)CSc5ccccc5)c(S(=O)(=O)C(F)(F)F)c4)cc3)CC2)C1", "note": "+ O=C(Oc1ccc([N+](=O)[O-])cc1)N1CCC(C(O)(c2ccc3c(c2)OCO3)c2ccc3c(c2)OCO3)CC1 [JZL184] (first compound 0.4 µM, partner dose 1 µM)", "cell count": 87.9}, {"smiles": "CC(=O)O[C@@]12CO[C@@H]1C[C@H](O)[C@@]1(C)C(=O)[C@H](O)C3=C(C)[C@@H](OC(=O)[C@H](O)[C@@H](NC(=O)OC(C)(C)C)c4ccccc4)C[C@@](O)([C@@H](OC(=O)c4ccccc4)[C@H]21)C3(C)C", "note": "[Docetaxel] + C/C(O)=C(\\C#N)C(=O)Nc1cc(Br)ccc1Br [LFM-A13] (first compound 0.0001 µM, partner dose 2 µM)", "cell count": 51.8}, {"smiles": "CC[C@]1(O)C[C@H]2CN(CCc3c([nH]c4ccccc34)[C@@](C(=O)OC)(c3cc4c(cc3OC)N(C=O)[C@H]3[C@@](O)(C(=O)OC)[C@H](OC(C)=O)[C@]5(CC)C=CCN6CC[C@]43[C@@H]65)C2)C1", "note": "[vincristine] + N.N.[Cl][Pt][Cl] [cisplatin] (first compound 0.0001 µM, partner dose 1.6 µM)", "cell count": 96.8}, {"smiles": "O=c1[nH]nc(Sc2ncc([N+](=O)[O-])s2)n1-c1ccc2c(c1)OCCO2", "note": "+ O=C(Oc1ccc([N+](=O)[O-])cc1)N1CCC(C(O)(c2ccc3c(c2)OCO3)c2ccc3c(c2)OCO3)CC1 [JZL184] (first compound 0.2 µM, partner dose 1 µM)", "cell count": 102}, {"smiles": "O=S(=O)(c1ccccc1)N(CC(F)(F)F)c1ccc(C(O)(C(F)(F)F)C(F)(F)F)cc1", "note": "+ C/C(O)=C(\\C#N)C(=O)Nc1cc(Br)ccc1Br [LFM-A13] (first compound 1.4 µM, partner dose 2 µM)", "cell count": 80.8}, {"smiles": "O=C(Nc1cc(C(F)(F)F)cc(C(F)(F)F)c1)c1cc(Cl)ccc1O", "note": "+ O=C(Oc1ccc([N+](=O)[O-])cc1)N1CCC(C(O)(c2ccc3c(c2)OCO3)c2ccc3c(c2)OCO3)CC1 [JZL184] (first compound 0.016 µM, partner dose 1 µM)", "cell count": 78.8}, {"smiles": "COc1cc([C@@H]2c3cc4c(cc3[C@@H](O[C@@H]3O[C@@H]5CO[C@@H](C)O[C@H]5[C@H](O)[C@H]3O)[C@H]3COC(=O)[C@H]23)OCO4)cc(OC)c1O", "note": "[etoposide] + Cn1cc(C2=C(c3cn(C4CCN(Cc5ccccn5)CC4)c4ccccc34)C(=O)NC2=O)c2ccccc21 [Enzastaurin] (first compound 0.02 µM, partner dose 0.8 µM)", "cell count": 102}, {"smiles": "O=C(Nc1cccc(Cl)c1)Nc1ncc(CCNc2ncnc3ccsc23)s1", "note": "+ C/C(O)=C(\\C#N)C(=O)Nc1cc(Br)ccc1Br [LFM-A13] (first compound 0.0008 µM, partner dose 2 µM)", "cell count": 91.6}, {"smiles": "CCN(CC)CCNC(=O)c1c(C)[nH]c(/C=C2\\C(=O)Nc3ccc(F)cc32)c1C", "note": "[sunitinib] + Cc1cc(SCc2sc(-c3ccc(C(F)(F)F)c(F)c3)nc2C)ccc1OCC(=O)O [GW0742] (first compound 0.4 µM, partner dose 2 µM)", "cell count": 80.1}, {"smiles": "O=C(Oc1ccc([N+](=O)[O-])cc1)N1CCC(C(O)(c2ccc3c(c2)OCO3)c2ccc3c(c2)OCO3)CC1", "note": "+ CC(C)CCN1c2nc(Nc3cc(F)c(O)c(F)c3)ncc2N(C)C(=O)C1C [BID1870] (first compound 1 µM, partner dose 0.2 µM)", "cell count": 95.6}, {"smiles": "NC1(c2ccc(-c3nc4ccn5c(=O)[nH]nc5c4cc3-c3ccccc3)cc2)CCC1", "note": "+ N.N.[Cl][Pt][Cl] [cisplatin] (first compound 0.4 µM, partner dose 1.6 µM)", "cell count": 71.8}, {"smiles": "Cc1cc(SCc2sc(-c3ccc(C(F)(F)F)c(F)c3)nc2C)ccc1OCC(=O)O", "note": "+ O=c1cc(-c2cccc3c2Sc2ccccc2S3)oc(N2CCOCC2)c1 [KU55933] (first compound 2 µM, partner dose 1 µM)", "cell count": 85.8}, {"smiles": "Cc1cc(SCc2sc(-c3ccc(C(F)(F)F)c(F)c3)nc2C)ccc1OCC(=O)O", "note": "+ O=C(Oc1ccc([N+](=O)[O-])cc1)N1CCC(C(O)(c2ccc3c(c2)OCO3)c2ccc3c(c2)OCO3)CC1 [JZL184] (first compound 2 µM, partner dose 1 µM)", "cell count": 97.4}, {"smiles": "O=C(Nc1cc(C(F)(F)F)cc(C(F)(F)F)c1)c1cc(Cl)ccc1O", "note": "+ C[C@]12O[C@H](C[C@]1(O)CO)n1c3ccccc3c3c4c(c5c6ccccc6n2c5c31)CNC4=O [Lestaurtinib] (first compound 0.016 µM, partner dose 0.004 µM)", "cell count": 91.6}]}]}
